Hit rate of the full screen: of about 2,700 compounds, about 160 (5.9%) showed an effect of 50% or more. The list shows a part of the results.

The values that follow come from ChEMBL document CHEMBL5606458, “ASAP - ZIKV NS2B-NS3 protease fluorescence single point” (2024).

The assay addresses Nonstructural protein 3 (Zika virus) (UniProt A0A024AXB9).
Where [1] appears, read: PRVABC59, Concentration 15.0 uM, Number of replicates 1.0.
Where [2] appears, read: PRVABC59, Concentration 50.0 uM, Number of replicates 1.0.

UniProt A0A024AXB9, sequence (A0A024AXB9 as listed by the source): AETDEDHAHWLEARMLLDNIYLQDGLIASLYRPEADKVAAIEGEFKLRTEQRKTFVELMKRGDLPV

The inhibition is the drop in the measured response relative to a control, in per cent. With `N#Cc1ccc(NC(=O)c2cc(Cl)ccc2NS(=O)(=O)c2ccc(Oc3ccccc3Cl)cc2)cc1Br`, under setting [1], the inhibition came out at 27.9%.
Take `O=Cc1ccc(N2CCC(C(=O)NC3CCN(CC4CCOCC4)CC3)CC2)cc1`: under setting [2], the inhibition worked out at 26%.
`O=C(O)c1cnn(C2CCN(Cc3c[nH]nc3-c3ccccc3)CC2)n1`: the inhibition runs as follows: (PRVABC59, Concentration 49.5 uM, Number of replicates 2.0, Standard deviation 0.21821479186625958 %) 0.377%; (PRVABC59, Concentration 99.01 uM, Number of replicates 2.0, Standard deviation 0.606152097773615 %) 2.99%; (PRVABC59, Concentration 198.0 uM, Number of replicates 2.0, Standard deviation 0.6728285807052433 %) 8.16%.
In the case of `O=Cc1ccc(N2CCC(C(=O)N3CCN(Cc4ccc(Cl)nc4)CC3)CC2)cc1`, the inhibition under setting [2] amounted to 18%.
Regarding `Cc1c(C(=O)NCc2ccc(Cl)cc2OCCO)ccc(O)c1NC(=O)c1ccncc1F`, the inhibition is -0.707% (PRVABC59, Concentration 49.5 uM, Number of replicates 2.0, Standard deviation 0.8627565362668407 %); 1.68% (PRVABC59, Concentration 99.01 uM, Number of replicates 2.0, Standard deviation 1.0526843021676198 %); 5.54% (PRVABC59, Concentration 198.0 uM, Number of replicates 2.0, Standard deviation 0.8566950502709888 %).
On to `Cc1cc(CO)c2cccc(NC(=O)[C@@H](N)CCN)c2n1`, for which the inhibition by setting is: (PRVABC59, Concentration 49.95 uM, Number of replicates 2.0, Standard deviation 10.156724992387474 %) 7.81%; (PRVABC59, Concentration 99.9 uM, Number of replicates 2.0, Standard deviation 27.740304464442595 %) 6.58%.
Consider `COCCN(Cc1cccc2ccccc12)C(=O)C1CCN(c2ccc(C=O)cc2)CC1`, for which, under setting [2], the inhibition came out at 16.9%.
Take `O=C(N[C@H](c1ccccc1)[C@@H](O)c1ccccc1)c1cc(Cl)ccc1NS(=O)(=O)c1ccc(Oc2ccccc2Cl)cc1`: the inhibition under setting [1] was found to be 45.7%.
In the case of `CNC(=O)[C@H]1CN(S(=O)(=O)c2ccc(Oc3ccccc3Cl)cc2)CCO1`, the inhibition (PRVABC59, Concentration 49.5 uM, Number of replicates 2.0, Standard deviation 3.5847288244061386 %) is -2.94%; the inhibition (PRVABC59, Concentration 99.01 uM, Number of replicates 2.0, Standard deviation 3.726342509357258 %) was -2.14%; the inhibition (PRVABC59, Concentration 198.0 uM, Number of replicates 2.0, Standard deviation 2.179159896763992 %) is -2.94%.
In the case of `O=Cc1ccc(N2CCC(C(=O)Nc3cnc(Cl)c(Br)c3)CC2)cc1`, under setting [2], the inhibition was determined as 23.4%.
On to `CC(C)CCN(CCC(C)C)C(=O)c1cc(Cl)ccc1NS(=O)(=O)c1ccc(Oc2ccccc2Cl)cc1`, for which the inhibition under setting [1] was found to be 18.8%.
As for `Cc1nccc(Cn2cc(C3CCNCC3)c(C)n2)n1`, the inhibition is -6.27% (PRVABC59, Concentration 49.5 uM, Number of replicates 2.0, Standard deviation 1.726112379646082 %); -6.67% (PRVABC59, Concentration 99.01 uM, Number of replicates 2.0, Standard deviation 0.17396432038920195 %); -2.77% (PRVABC59, Concentration 198.0 uM, Number of replicates 2.0, Standard deviation 5.707961096528205 %).
For `O=C(c1cc(Cl)ccc1NS(=O)(=O)c1ccc(Oc2ccccc2Cl)cc1)N1C[C@@H]2C[C@H]1CN2Cc1ccccc1`, the inhibition under setting [1] stood at 7.15%.
Regarding `O=C(Cc1cnc[nH]1)NC1CCN(C(=O)c2cccc3[nH]ncc23)CC1`, the inhibition was -1.78% (PRVABC59, Concentration 49.5 uM, Number of replicates 2.0, Standard deviation 0.3838964241228128 %); -1.17% (PRVABC59, Concentration 99.01 uM, Number of replicates 2.0, Standard deviation 0.6526237608507574 %); -1.05% (PRVABC59, Concentration 198.0 uM, Number of replicates 2.0, Standard deviation 1.0930943422716526 %).
For `O=C(NCCc1ccc(OC(F)(F)F)cc1)c1cc(Cl)ccc1NS(=O)(=O)c1ccc(Oc2ccccc2Cl)cc1`, the inhibition under setting [1] is 27.7%.
The same measure, in the same setting: with `O=C(Nc1cccc(N2CCOCC2)c1)c1cc(Cl)ccc1NS(=O)(=O)c1ccc(Oc2ccccc2Cl)cc1` the figure was 66.3%; with `O=C(N[C@@H]1[C@@H](O)[C@H](O)[C@@H](CO)O[C@H]1O)c1cc(Cl)ccc1NS(=O)(=O)c1ccc(Oc2ccccc2Cl)cc1`, 4.78%.
The same measure, in the same setting: then `CNC(=O)C1(C)CCN(C(=O)c2cc(Cl)ccc2NS(=O)(=O)c2ccc(Oc3ccccc3Cl)cc2)CC1`, with -2.63%.
`COc1cc(COc2ccnc3ccnn23)nc(N2CCNCC2)n1`: the inhibition reads like this: (PRVABC59, Concentration 49.5 uM, Number of replicates 2.0, Standard deviation 0.8016003105759115 %) -1.08%; (PRVABC59, Concentration 99.01 uM, Number of replicates 2.0, Standard deviation 0.5716839625194965 %) -0.798%; (PRVABC59, Concentration 198.0 uM, Number of replicates 2.0, Standard deviation 1.3111446876717348 %) 1.2%.
For `C[C@H](NC(=O)c1cc(Cl)ccc1NS(=O)(=O)c1ccc(Oc2ccccc2Cl)cc1)c1ccc(Br)cc1`, the inhibition under setting [1] was 37.2%.
On to `CN1CCN(c2ccc(CNC(=O)c3cc(Cl)ccc3NS(=O)(=O)c3ccc(Oc4ccccc4Cl)cc3)cc2)CC1`, for which the inhibition under setting [1] was 12%.
Regarding `O=Cc1ccc(N2CCC(C(=O)N3CCC[C@H](c4nnc5ccccn45)C3)CC2)cc1`, the inhibition under setting [2] was 26.6%.
Regarding `O=C(C(=O)N1CCOCC1)c1c[nH]c2ccccc12`, the inhibition runs as follows: (PRVABC59, Concentration 49.5 uM, Number of replicates 2.0, Standard deviation 0.17998600922334743 %) -0.983%; (PRVABC59, Concentration 99.01 uM, Number of replicates 2.0, Standard deviation 1.1884369831445414 %) 0.292%; (PRVABC59, Concentration 198.0 uM, Number of replicates 2.0, Standard deviation 1.4742969294984674 %) 3.1%.
Turning to `Cn1cc(NC(=O)c2ccccc2-c2ccc(C(=O)O)nc2)cn1`, the inhibition by setting is: (PRVABC59, Concentration 49.5 uM, Number of replicates 2.0, Standard deviation 2.4498358087391408 %) -1.15%; (PRVABC59, Concentration 99.01 uM, Number of replicates 2.0, Standard deviation 1.6656005687321722 %) -0.876%; (PRVABC59, Concentration 198.0 uM, Number of replicates 2.0, Standard deviation 2.3203289956835937 %) 3.27%.
With `Cc1n[nH]cc1-c1ccccc1C(=O)Nc1cnn(C)c1`, the inhibition reads like this: (PRVABC59, Concentration 49.5 uM, Number of replicates 2.0, Standard deviation 3.191399466702898 %) -2.16%; (PRVABC59, Concentration 99.01 uM, Number of replicates 2.0, Standard deviation 2.5035391492559715 %) -1.69%; (PRVABC59, Concentration 198.0 uM, Number of replicates 2.0, Standard deviation 2.931238418982876 %) -1.46%.
`O=Cc1ccc(N2CCC(C(=O)N3CCC4(CC3)CC(=O)c3ccccc3O4)CC2)cc1`: the inhibition under setting [2] turned out to be 9.73%.
Turning to `Cc1cnc2ccccc2c1NC(=O)c1cccn(CC(C)C)c1=O`, the inhibition by setting is: (PRVABC59, Concentration 49.5 uM, Number of replicates 2.0, Standard deviation 0.6001524095943922 %) 3.52%; (PRVABC59, Concentration 99.01 uM, Number of replicates 2.0, Standard deviation 0.6796425459976966 %) 8.92%; (PRVABC59, Concentration 198.0 uM, Number of replicates 2.0, Standard deviation 1.709043243173958 %) 17.9%.
Regarding `O=Cc1ccc(N2CCC(C(=O)Nc3nnc(Cl)cc3Br)CC2)cc1`, the inhibition under setting [2] was found to be 29%.
For `COc1ccc(CN(C)C(=O)c2cc(Cl)ccc2NS(=O)(=O)c2ccc(Oc3ccccc3Cl)cc2)cc1O`, the inhibition under setting [1] was determined as 18.1%.
Regarding `O=Cc1ccc(N2CCC(C(=O)Nc3ccc(O)cc3[N+](=O)[O-])CC2)cc1`, the inhibition under setting [2] stood at 38.4%.
On to `O=C(O)C1CCN(Cc2c[nH]c3ccccc23)CC1`, for which the inhibition was -2.26% (PRVABC59, Concentration 49.5 uM, Number of replicates 2.0, Standard deviation 0.9943996782429954 %); -1.01% (PRVABC59, Concentration 99.01 uM, Number of replicates 2.0, Standard deviation 1.4833948957319987 %); -1.44% (PRVABC59, Concentration 198.0 uM, Number of replicates 2.0, Standard deviation 4.1958416694697585 %).
Turning to `C[C@H]1CN(C(=O)OC(C)(C)C)CCN1C(=O)c1cc(Cl)ccc1NS(=O)(=O)c1ccc(Oc2ccccc2Cl)cc1`, the inhibition under setting [1] was 13.5%.
As for `O=Cc1ccc(N2CCC(C(=O)NCCOCc3ccccc3)CC2)cc1`, the inhibition under setting [2] was 21.1%.
On to `O=C(NC1CN(C(c2ccccc2)c2ccccc2)C1)c1cc(Cl)ccc1NS(=O)(=O)c1ccc(Oc2ccccc2Cl)cc1`, for which the inhibition under setting [1] came to 0.946%.
Turning to `O=C(Nc1c(Br)cncc1[N+](=O)[O-])c1cc(Cl)ccc1NS(=O)(=O)c1ccc(Oc2ccccc2Cl)cc1`, under setting [1], the inhibition came to 25.3%.
For the molecule `CCOc1ccc(CNC(=O)C2CCN(c3ccc(C=O)cc3)CC2)cc1`, the inhibition (PRVABC59, Concentration 10.0 uM, Number of replicates 1.0) was 4.26%.
For `N#Cc1ccc(C[C@H](NC(=O)c2ccccc2)C(=O)N2CCC[C@@H](CNC(=N)N)C2)cc1`, the inhibition turned out to be 6.42% (PRVABC59, Concentration 49.5 uM, Number of replicates 2.0, Standard deviation 1.2619096875454 %); 9.58% (PRVABC59, Concentration 99.01 uM, Number of replicates 2.0, Standard deviation 0.8863178784531737 %); 16.2% (PRVABC59, Concentration 198.0 uM, Number of replicates 2.0, Standard deviation 0.09141347984703638 %).
`COCCn1cccc(C(=O)Nc2ccncc2C)c1=O`: the inhibition was -1.95% (PRVABC59, Concentration 49.5 uM, Number of replicates 2.0, Standard deviation 3.2021605317736013 %); -0.604% (PRVABC59, Concentration 99.01 uM, Number of replicates 2.0, Standard deviation 3.047865028692948 %); -2.31% (PRVABC59, Concentration 198.0 uM, Number of replicates 2.0, Standard deviation 2.253137351822617 %).
